{"source": "the supplement of paper PMC11417369", "note": "The other results are listed elsewhere or left out."}
{"tested_on": "PF3D7_0420300 AP2 domain 1 (GST-tagged)", "test": "gcPBM binding intensity (ln(normalized median fluorescence intensity)); higher = stronger DNA binding", "in_short": "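GST-fused DNA-binding domains of P. falciparum, expressed in E. coli, were applied at about 25 μg on average for 1 h to an Agilent 4 × 180k array of primer-extended double-stranded 36-bp intergenic genomic probes and negative controls. Binding intensity is the highest Masliner-normalised natural-log median intensity across replicate spots of either probe orientation, measured with Alexa488 anti-GST antibody and a 488 nm scan.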"}
{"sequence": "TATATATTATACACGTGTACACATTATAACAATATA [XGTACX_site7799]", "gcPBM binding intensity (ln)": 9.27}
{"sequence": "TTTCCCTTAAATTAATGTACATAAATTGAAAATACC [XGTACX_site1602]", "gcPBM binding intensity (ln)": 9.08}
{"sequence": "TAAAATTTTTTTGTTTGTACATATATATATATAATA [XGTACX_site5609]", "gcPBM binding intensity (ln)": 9.11}
{"sequence": "AAAAAAATAAATAAATACATACATATATATATGTAT [GTGCAC_negctrl_site510]", "gcPBM binding intensity (ln)": 9.24}
{"sequence": "AAAAAAAAAAAACACACACACAAAAAAAAATATATA [CACACA_site1105]", "gcPBM binding intensity (ln)": 10.1}
{"sequence": "TTGCCCCAGGAGTTCACACACATAATAGATTGTCAC [CACACA_site726]", "gcPBM binding intensity (ln)": 9.68}
{"sequence": "TACGTGAAATTATATACACACATAAATATGTCTGTA [CACACA_site3122]", "gcPBM binding intensity (ln)": 9.39}
{"sequence": "AAGCTACACATAGATTATTATTAATTTAATGTATAT [CACACA_negctrl_site548]", "gcPBM binding intensity (ln)": 9.1}
{"sequence": "ACAAGCTTTCATAAGGTGCAATGATTTAACAAAAAA [GTGCAC_site9726]", "gcPBM binding intensity (ln)": 8.87}
{"sequence": "AATTATTAGCGTGGTGTGCACAAAATTATGGACACA", "gcPBM binding intensity (ln)": 9.58}
{"sequence": "TATAAAAATAATATTACACACATGTAAAATGTCGGT [CACACA_site3264]", "gcPBM binding intensity (ln)": 9.54}
{"sequence": "AGCATTTATGAAAAATGTACACACATCAAATGCTTA [XGTACX_site8749]", "gcPBM binding intensity (ln)": 9.25}
{"sequence": "ACACATGACATCCGTTGTACAATCATCATAAAAATG [XGTACX_site5397]", "gcPBM binding intensity (ln)": 9.28}
{"sequence": "CGTATAAATAAATACACACACATATAAATATGTAAA [CACACA_site6236]", "gcPBM binding intensity (ln)": 9.74}
{"sequence": "TAATATATTGTAGATGCATGCATTAACTATTACAAA [TGCATGCA_site190]", "gcPBM binding intensity (ln)": 9.15}
{"sequence": "TATCAATGGAAAATATATATTTGTATATATGTAATA [XGTACX_negctrl_site257]", "gcPBM binding intensity (ln)": 9.16}
{"sequence": "GTATTATACCATAATGCATGTTAACTTCAAAAGAAA [TGCATGCA_site839]", "gcPBM binding intensity (ln)": 9.08}
{"sequence": "GAAATTATTATATAAACACACATTTATTTTATTTTA [CACACA_site1957]", "gcPBM binding intensity (ln)": 9.29}
{"sequence": "ATAATCCTTAAACACACACACACACTAATAAATAAA [CACACA_site8052]", "gcPBM binding intensity (ln)": 10.2}
{"sequence": "TTGTTTCCTTAATATTCACACACATATATATAATAT [CACACA_site8553]", "gcPBM binding intensity (ln)": 9.68}
{"sequence": "ATAAAAATTAAAGAATGTACACATATAATATATGTA [XGTACX_site8735]", "gcPBM binding intensity (ln)": 9.21}
{"sequence": "AAAAGTTATAGACACACACACATATAAATATAGATT [CACACA_site6617]", "gcPBM binding intensity (ln)": 10}
{"sequence": "TATAAATGTATACAAGTGCATATTATTCACACATAA", "gcPBM binding intensity (ln)": 9.34}
{"sequence": "GGATATATTTTATGTACACACATATATAACGGATAT [CACACA_site4847]", "gcPBM binding intensity (ln)": 9.57}
{"sequence": "TTTTAAAAAAATAAATAAATAGAAAAAAAAAATAAA [TGCATGCA_negctrl_site579]", "gcPBM binding intensity (ln)": 9.18}
{"sequence": "TATTATGACTTAAGTTGTACTGTTGAAAGAAGAAAA [XGTACX_site2985]", "gcPBM binding intensity (ln)": 9.05}
{"sequence": "TTGTGTAAATGTTAAGTGCATTTGGTAAAATATAAA [GTGCAC_site9699]", "gcPBM binding intensity (ln)": 9.16}
{"sequence": "ATGATATGCAATTTAGTGCATAACAAAATTGGTATA", "gcPBM binding intensity (ln)": 9.16}
{"sequence": "AAAAAAAAAAAAAAAACACACATACCCATATATTTT [CACACA_site6013]", "gcPBM binding intensity (ln)": 9.47}
{"sequence": "TTTTTCTTTTTTTGGGGTACAGGGAAATCTATATTT [XGTACX_site7025]", "gcPBM binding intensity (ln)": 9.22}
{"sequence": "TCTTAATTTTTGAAGGTACACACTAATATATTAAAT [CACACA_site1191]", "gcPBM binding intensity (ln)": 9.18}
{"sequence": "TGTGTATACTTGTGTATACCAAATTAAAGACGCTTT [CACACA_negctrl_site1359]", "gcPBM binding intensity (ln)": 9.02}
{"sequence": "AAAAAATAAAAAAGGTGGTCATGTCACAAATACTTT [XGTACX_site7454]", "gcPBM binding intensity (ln)": 9.6}
{"sequence": "TAAAAGTGATATGTTCGTACGTATTTATATGTAATA [XGTACX_site211]", "gcPBM binding intensity (ln)": 9.14}
{"sequence": "TCTCCATCTTATGAGACATGCACTTTTTATTTAATA [TGCATGCA_site121]", "gcPBM binding intensity (ln)": 9.21}
{"sequence": "AACTCATCTTATAATTGTACATATTTATAAAAAGTA [XGTACX_site6522]", "gcPBM binding intensity (ln)": 9.02}
{"sequence": "TGTAGAAATGGGTGCACACACATATATAATATATAT [CACACA_site2507]", "gcPBM binding intensity (ln)": 9.68}
{"sequence": "AAAAAAAAAAAAAAAAAAAAAAAAAAAAAATATATA [GTGCAC_negctrl_site6]", "gcPBM binding intensity (ln)": 9.42}
{"sequence": "TTAGGGATGCTGAAATGTACACATTTAAATTATATA [XGTACX_site3000]", "gcPBM binding intensity (ln)": 9.09}
{"sequence": "AATGTAAAACTAATATGTACATATCTCTAAAGAAAT [XGTACX_site8429]", "gcPBM binding intensity (ln)": 9.32}
{"sequence": "CGTACTAACATAAAGACACACACCACATATAATAAA [CACACA_site3603]", "gcPBM binding intensity (ln)": 9.72}
{"sequence": "ATTGTCTTCCTTCTGGTGCGATGTATAGGTAAAGAT", "gcPBM binding intensity (ln)": 9.17}
{"sequence": "CCATAAAAAGGTACATGTACAAAAAGCAAAAATATG [XGTACX_site5543]", "gcPBM binding intensity (ln)": 9.52}
{"sequence": "ATATTTTTCCAACATCGTACATTATGAGTCAAAATT [XGTACX_site993]", "gcPBM binding intensity (ln)": 9.24}
{"sequence": "TTTCTTATCAACCTTTTTTTTTTTTTTTTATTCTTA [TGCATGCA_negctrl_site162]", "gcPBM binding intensity (ln)": 9.28}
{"sequence": "AATTTAATTTTTTCGTGTACTTATATAGGAGGTTTT [XGTACX_site8310]", "gcPBM binding intensity (ln)": 9.19}
{"sequence": "CAATTAAAGATATGAACACACATGTGAACTTTCTAT [CACACA_site7796]", "gcPBM binding intensity (ln)": 9.48}
{"sequence": "CCCATATTATAGGTGTGTACATAAAAGTATATATAA [XGTACX_site3629]", "gcPBM binding intensity (ln)": 9.36}
{"sequence": "AGAAGAAATATGTAAAAAATTTTATATTCACACACA [GTGCAC_negctrl_site441]", "gcPBM binding intensity (ln)": 9.54}
{"sequence": "TGTTCTTATACTAATAGTACTTTTAGGTACTATAAA [XGTACX_site2954]", "gcPBM binding intensity (ln)": 9.09}
{"sequence": "TGTAGACATTAATGTAGTACAATATATATATATATT [XGTACX_site8608]", "gcPBM binding intensity (ln)": 9.34}
{"sequence": "TTTATATATAATGTTGCATGTCAAATTTGTATATGG [TGCATGCA_site246]", "gcPBM binding intensity (ln)": 9.2}
{"sequence": "AAAATTGGTGAAAATGAAAATATGATTATATGTATA [XGTACX_negctrl_site505]", "gcPBM binding intensity (ln)": 9.27}
{"sequence": "CCATAAAACTATAATACACACATATAGATTAACATA [CACACA_site7849]", "gcPBM binding intensity (ln)": 9.7}
{"sequence": "TGATAAGAAAAAGACTTTTCCTTCTTACTTTCTATG [CACACA_negctrl_site782]", "gcPBM binding intensity (ln)": 9.08}
{"sequence": "CAAAATAAATAATTTGGTACACATAAAAAAAAAAAA [XGTACX_site8380]", "gcPBM binding intensity (ln)": 9.15}
{"sequence": "AATAATGTTTTTATATCACACACAAATATTAAATGA [CACACA_site8074]", "gcPBM binding intensity (ln)": 9.43}
